Measurements taken from the supplement of paper PMC10126150.
Values marked as one replicate rest on one cluster of the flow cell; about a third of the high ones do not repeat.

Test system: ATP
Assay: switch fluorescence ratio, 500 uM ATP over buffer (Cy3 cluster intensity, sum of 5 cycles each) (fold (ratio)); higher = stronger signal-on switching upon ATP binding; sequences stand for … in TCGTCGGCAGCGTCAGATGTGTATAAGAGACAGTTTTTTTTTTTTTTTTTTTTTTTTT…TC
Settings: aptamer strand: ATP DNA aptamer (quencher-CACCTGGGGGAGTATTGCGGAGGAAGG + anchor), 100 nM annealed; ATP concentration: 500 uM; one replicate
In short: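 Switching-strand clusters labelled with Cy3 on a modified Illumina MiSeq flow-cell were annealed to 100 nM quencher-labelled ATP aptamer, imaged in selection buffer, and re-imaged after 15 min with 500 uM ATP at 22 °C. This was done over five cycles with NaOH stripping and re-annealing in between. The fluorescence ratio is summed target-cycle over summed buffer-cycle Cy3 intensity per cluster, averaged per switch-domain sequence, excluding clusters outside 100-1000 RFU.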
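Further: ATP exposure 15 min at 22 °C before imaging.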

AAAGCACGCG showed a switch fluorescence ratio of 1.06.
Sequence TCCTAAGCTT has a switch fluorescence ratio of 1.47.
GCGGTGGCCA showed a switch fluorescence ratio of 1.
With CTTCGAGACT the switch fluorescence ratio was 1.02.
TTTAGATTAA showed a switch fluorescence ratio of 1.
For ACCATCAATG, the switch fluorescence ratio was 1.02.
TTGGTTTCTA showed a switch fluorescence ratio of 0.968.
With TTACGATTAT the switch fluorescence ratio was 1.01.
GTTTACATGG was tested, and the switch fluorescence ratio was 0.97.
In the case of GAGAGGACGT, the switch fluorescence ratio was 1.09.
Sequence AGCTAGACTG has a switch fluorescence ratio of 1.07.
TGGCGAGA gave a switch fluorescence ratio of 1.01.
TGTCGACAAT showed a switch fluorescence ratio of 1.03.
With TATGGGCGAC the switch fluorescence ratio was 0.935.
In the case of CTAGGGGAAG, the switch fluorescence ratio was 0.996.
Work on TATTTGGGCC yielded a switch fluorescence ratio of 0.98.
GCGCTGAGGA showed a switch fluorescence ratio of 1.
Work on TTAGGGGCAT yielded a switch fluorescence ratio of 1.05.
GTTTTTGAAC was tested, and the switch fluorescence ratio was 0.997.
Sequence CCACTAAGGT has a switch fluorescence ratio of 1.01.
AACGCGCTAA gave a switch fluorescence ratio of 1.06.
With TTGATCTATT the switch fluorescence ratio was 1.02.
GCGTGCGCAG gave a switch fluorescence ratio of 1.04.
In the case of ATGGTCAATC, the switch fluorescence ratio was 0.996.
GCTCTACATC was tested, and the switch fluorescence ratio was 1.04.
AAAATAACGG gave a switch fluorescence ratio of 1.01.
TTACATCTCA showed a switch fluorescence ratio of 1.05.
With GCGGGGATTG the switch fluorescence ratio was 0.987.
Sequence ACGGATCGGA has a switch fluorescence ratio of 0.995.
In the case of ATCGTGAGTG, the switch fluorescence ratio was 0.969.
Work on TTATGGGTTC yielded a switch fluorescence ratio of 0.996.
ATCGACTTAA showed a switch fluorescence ratio of 1.04.
Work on TACTGCGGAC yielded a switch fluorescence ratio of 1.35.
Work on CGAATGCTCA yielded a switch fluorescence ratio of 1.11.
TTTAAAAACA was tested, and the switch fluorescence ratio was 1.02.
For CAGGAGTTA, the switch fluorescence ratio was 1.03.
Work on GAGTCTCAGT yielded a switch fluorescence ratio of 1.01.
With AAAGTTTGAA the switch fluorescence ratio was 0.972.
In the case of AAACTCGCCC, the switch fluorescence ratio was 1.14.
With ACGTCGTTG the switch fluorescence ratio was 0.971.
GGGCCGCCTT gave a switch fluorescence ratio of 1.04.
Work on CAGGGAATGC yielded a switch fluorescence ratio of 1.48.
In the case of GAACATCGTT, the switch fluorescence ratio was 0.992.
CCCTTCAGGG gave a switch fluorescence ratio of 0.978.
GGTCCCAGTC gave a switch fluorescence ratio of 1.09.
For GAATGTGGC, the switch fluorescence ratio was 1.05.
With TTAGCTGGGT the switch fluorescence ratio was 1.02.
With CTGCTGAGGC the switch fluorescence ratio was 1.03.
Work on CAAGAGCTGG yielded a switch fluorescence ratio of 1.01.
For ATTTTTTTAC, the switch fluorescence ratio was 0.997.
With GTAGAAATCT the switch fluorescence ratio was 1.02.
In the case of GGCTTCGTGA, the switch fluorescence ratio was 1.09.
Sequence AAACGATCGT has a switch fluorescence ratio of 0.974.
TATTCGAACC showed a switch fluorescence ratio of 1.06.
CGCCCAAGTT gave a switch fluorescence ratio of 1.09.
CCGGGTACA showed a switch fluorescence ratio of 1.08.
TCGTGTTAAT was tested, and the switch fluorescence ratio was 0.985.
Sequence TGGGTCAAGA has a switch fluorescence ratio of 0.957.
Sequence GTCATTAATT has a switch fluorescence ratio of 1.01.
Work on GCATTATTGC yielded a switch fluorescence ratio of 1.02.
For CGTAAGGCAC, the switch fluorescence ratio was 1.04.
Work on CACCCGTTCA yielded a switch fluorescence ratio of 1.06.
For GGCGCAGCTA, the switch fluorescence ratio was 0.981.
With ATGCTTAACT the switch fluorescence ratio was 0.991.
In the case of GTGAGGACGT, the switch fluorescence ratio was 0.978.
CCGGTATCCC was tested, and the switch fluorescence ratio was 1.19.
TCATGGGTAC gave a switch fluorescence ratio of 1.03.
CAATGTCTAG gave a switch fluorescence ratio of 0.952.
For AGGGTCGTG, the switch fluorescence ratio was 1.02.
With GGACCCAGTG the switch fluorescence ratio was 1.21.
In the case of TTGCCTTTC, the switch fluorescence ratio was 1.23.
With AAGGTGGTCC the switch fluorescence ratio was 0.971.
GTTGTGAACG showed a switch fluorescence ratio of 0.975.
TGTTTCCGTT was tested, and the switch fluorescence ratio was 1.
With TGGCATACA the switch fluorescence ratio was 1.
TGAGGCGACC showed a switch fluorescence ratio of 1.08.
With CCAACAAAC the switch fluorescence ratio was 1.2.
TACACAATGG was tested, and the switch fluorescence ratio was 1.22.
With CTACATCAAT the switch fluorescence ratio was 1.17.
TGGCGGAGGA showed a switch fluorescence ratio of 1.14.
With CTAGGCATGA the switch fluorescence ratio was 1.12.
Work on GTGTAAGCTT yielded a switch fluorescence ratio of 0.988.
TTACCTACTG showed a switch fluorescence ratio of 1.34.
CAGCTAGCGT showed a switch fluorescence ratio of 1.03.
For AGGTAATATA, the switch fluorescence ratio was 1.03.
TGATGAGCTA gave a switch fluorescence ratio of 0.986.
Work on CATTTAAAAG yielded a switch fluorescence ratio of 0.994.
In the case of CACTGTTGTC, the switch fluorescence ratio was 0.998.
With TGTAGGGATG the switch fluorescence ratio was 0.976.
With GGGTCAGCAC the switch fluorescence ratio was 0.985.
GCACCACGGA gave a switch fluorescence ratio of 1.1.
Work on CGAGATTTTT yielded a switch fluorescence ratio of 0.948.
AATTGCGGCT showed a switch fluorescence ratio of 0.961.
Sequence GATCCCCTGA has a switch fluorescence ratio of 1.33.
Work on ACGGAGGTAA yielded a switch fluorescence ratio of 1.03.
TGGCGTTTAG showed a switch fluorescence ratio of 0.957.
Sequence TTTCAAAGGT has a switch fluorescence ratio of 0.997.
In the case of CCGGCCCCTT, the switch fluorescence ratio was 1.16.
With AATTCGTGGA the switch fluorescence ratio was 1.01.
TGCCTGCAAC showed a switch fluorescence ratio of 1.02.
GATGCAAGTC gave a switch fluorescence ratio of 1.28.
With GATATTGGCT the switch fluorescence ratio was 1.01.
In the case of CGGACTGGCT, the switch fluorescence ratio was 1.01.
With AAGATAACT the switch fluorescence ratio was 1.
CTCCATACGA showed a switch fluorescence ratio of 2.99.
Work on CCGTGCTCGT yielded a switch fluorescence ratio of 1.03.
Work on TTACACTGAG yielded a switch fluorescence ratio of 1.05.
With TTATTTTCTT the switch fluorescence ratio was 1.
In the case of ATGCTTCC, the switch fluorescence ratio was 2.12.
Sequence CGCCGGGATG has a switch fluorescence ratio of 1.08.
TTATAAATTA showed a switch fluorescence ratio of 0.992.
Work on TGGAAATTCG yielded a switch fluorescence ratio of 0.997.
GACTTCTACA gave a switch fluorescence ratio of 1.13.
TAAATCGGTT was tested, and the switch fluorescence ratio was 1.
Sequence ACTGTCATGG has a switch fluorescence ratio of 1.1.
Sequence CTCATACTTG has a switch fluorescence ratio of 0.991.
GAAGTCACGA gave a switch fluorescence ratio of 1.08.
CATCACTGCC showed a switch fluorescence ratio of 1.07.
With CCACCATAGT the switch fluorescence ratio was 1.08.
TCTGGGATAG showed a switch fluorescence ratio of 1.17.
In the case of TCGCATGTTT, the switch fluorescence ratio was 1.06.
In the case of CAGGGAGGAT, the switch fluorescence ratio was 1.02.
Work on GATTTGTTGA yielded a switch fluorescence ratio of 1.01.
ATAATCA was tested, and the switch fluorescence ratio was 1.02.
AGGGCCAGGA gave a switch fluorescence ratio of 0.993.
GTGAACAAAT showed a switch fluorescence ratio of 0.974.
ATCGTTGCTA gave a switch fluorescence ratio of 0.99.
In the case of TCAAGGATTC, the switch fluorescence ratio was 0.993.
Sequence CAGTGTTTGA has a switch fluorescence ratio of 1.05.
With GGGTGAGTGC the switch fluorescence ratio was 0.913.
CTACCTCGTG gave a switch fluorescence ratio of 1.04.
In the case of CATTGCTTAC, the switch fluorescence ratio was 2.17.
GCGTACAGCG was tested, and the switch fluorescence ratio was 1.
Work on TTACACGAG yielded a switch fluorescence ratio of 1.04.
For ACCTGCCCTT, the switch fluorescence ratio was 1.11.
For TCAACCTTCA, the switch fluorescence ratio was 2.12.
Sequence CATTGAGATA has a switch fluorescence ratio of 0.976.
ACATAAGAGC gave a switch fluorescence ratio of 1.05.
With AGGATTCGTC the switch fluorescence ratio was 1.01.
AGATGTAAC gave a switch fluorescence ratio of 1.01.
CCGTTACCAC was tested, and the switch fluorescence ratio was 1.42.
CCAGTCGCTA was tested, and the switch fluorescence ratio was 1.34.
ACATACAAGC gave a switch fluorescence ratio of 1.32.
CCTGACATGT gave a switch fluorescence ratio of 1.02.
For GAAAACGCCT, the switch fluorescence ratio was 1.22.
TTCCACGTCT was tested, and the switch fluorescence ratio was 1.36.
With CGTCGACGGT the switch fluorescence ratio was 0.99.
CTGTACATGA gave a switch fluorescence ratio of 1.
Work on AGTCAAGTTT yielded a switch fluorescence ratio of 1.01.
TCCTTCCCGA gave a switch fluorescence ratio of 1.72.
For TCTTGTATTT, the switch fluorescence ratio was 1.02.
GCAAGGTGAC gave a switch fluorescence ratio of 1.36.
TGCGTCACCG gave a switch fluorescence ratio of 0.978.
For AAGGATCGAT, the switch fluorescence ratio was 0.938.
With GAAGGGTGA the switch fluorescence ratio was 1.01.
With ACAGCGGAAA the switch fluorescence ratio was 1.03.
AGCCTAGGTC was tested, and the switch fluorescence ratio was 0.973.
